Test results as given in paper PMC5101352.
Results are given in words; binding and its absence hold for the method and conditions named. Some binding calls cover weakened binding; strength is not graded here. Tags and fused reporters may be left off the sequences shown.

Target: YbeY (E. coli), bacterial two-hybrid fusion (E. coli) (UniProt P0A898)
Assay: two-hybrid; bacterial adenylate cyclase two-hybrid (BACTH) in E. coli BTH101; T25 and T18 fusions; spots or streaks on LB agar with X-Gal, IPTG and TPEG, 30°C, colour read after 2 or 3 days

Binder	binding
GTPase Der, bacterial two-hybrid fusion (protein, UniProt P0A6P5 1-490) MVPVVALVGRPNVGKSTLFNRLTRTRDALVADFPGLTRDRKYGRAEIEGREFICIDTGGIDGTEDGVETRMAEQSLLAIEEADVVLFMVDARAGLMPADEAIAKHLRSREKPTFLVANKTDGLDPDQAVVDFYSLGLGEIYPIAASHGRGVLSLLEHVLLPWMEDLAPQEEVDEDAEYWAQFEAEENGEEEEEDDFDPQSLPIKLAIVGRPNVGKSTLTNRILGEERVVVYDMPGTTRDSIYIPMERDGREYVLIDTAGVRKRGKITDAVEKFSVIKTLQAIEDANVVMLVIDAREGISDQDLSLLGFILNSGRSLVIVVNKWDGLSQEVKEQVKETLDFRLGFIDFARVHFISALHGSGVGNLFESVREAYDSSTRRVGTSMLTRIMTMAVEDHQPPLVRGRRVKLKYAHAGGYNPPIVVIHGNQVKDLPDSYKRYLMNYFRKSLDVMGSPIRIQFKEGENPYANKRNTLTPTQMRKRKRLMKHIKKNK	binds
PhoH-like protein YbeZ, bacterial two-hybrid fusion (protein, UniProt P0A9K3 1-346) MNIDTREITLEPADNARLLSLCGPFDDNIKQLERRLGIEINRRDNHFKLTGRPICVTAAADILRSLYVDTAPMRGQIQDIEPEQIHLAIKEARVLEQSAESVPEYGKAVNIKTKRGVIKPRTPNQAQYIANILDHDITFGVGPAGTGKTYLAVAAAVDALERQEIRRILLTRPAVEAGEKLGFLPGDLSQKVDPYLRPLYDALFEMLGFEKVEKLIERNVIEVAPLAYMRGRTLNDAFIILDESQNTTIEQMKMFLTRIGFNSKAVITGDVTQIDLPRNTKSGLRHAIEVLADVEEISFNFFHSEDVVRHPVVARIVNAYEAWEEAEQKRKAALAAERKREEQEQK	binds
RNA polymerase-binding transcription factor DksA, bacterial two-hybrid fusion (protein, UniProt P0ABS1 1-151) MQEGQNRKTSSLSILAIAGVEPYQEKPGEEYMNEAQLAHFRRILEAWRNQLRDEVDRTVTHMQDEAANFPDPVDRAAQEEEFSLELRNRDRERKLIKKIEKTLKKVEDEDFGYCESCGVEIGIRRLEARPTADLCIDCKTLAEIREKQMAG	no binding
GTP-binding protein BipA, bacterial two-hybrid fusion (protein, UniProt P0DTT0 1-607) MIEKLRNIAIIAHVDHGKTTLVDKLLQQSGTFDSRAETQERVMDSNDLEKERGITILAKNTAIKWNDYRINIVDTPGHADFGGEVERVMSMVDSVLLVVDAFDGPMPQTRFVTKKAFAYGLKPIVVINKVDRPGARPDWVVDQVFDLFVNLDATDEQLDFPIVYASALNGIAGLDHEDMAEDMTPLYQAIVDHVPAPDVDLDGPFQMQISQLDYNSYVGVIGIGRIKRGKVKPNQQVTIIDSEGKTRNAKVGKVLGHLGLERIETDLAEAGDIVAITGLGELNISDTVCDTQNVEALPALSVDEPTVSMFFCVNTSPFCGKEGKFVTSRQILDRLNKELVHNVALRVEETEDADAFRVSGRGELHLSVLIENMRREGFELAVSRPKVIFREIDGRKQEPYENVTLDVEEQHQGSVMQALGERKGDLKNMNPDGKGRVRLDYVIPSRGLIGFRSEFMTMTSGTGLLYSTFSHYDDVRPGEVGQRQNGVLISNGQGKAVAFALFGLQDRGKLFLGHGAEVYEGQIIGIHSRSNDLTVNCLTGKKLTNMRASGTDEAVVLVPPIRMTLEQALEFIDDDELVEVTPTSIRIRKRHLTENDRRRANRAPKDD	no binding
RNase R, bacterial two-hybrid fusion (protein, UniProt P21499 1-813) MSQDPFQEREAEKYANPIPSREFILEHLTKREKPASRDELAVELHIEGEEQLEGLRRRLRAMERDGQLVFTRRQCYALPERLDLVKGTVIGHRDGYGFLRVEGRKDDLYLSSEQMKTCIHGDQVLAQPLGADRKGRREARIVRVLVPKTSQIVGRYFTEAGVGFVVPDDSRLSFDILIPPDQIMGARMGFVVVVELTQRPTRRTKAVGKIVEVLGDNMGTGMAVDIALRTHEIPYIWPQAVEQQVAGLKEEVPEEAKAGRVDLRDLPLVTIDGEDARDFDDAVYCEKKRGGGWRLWVAIADVSYYVRPSTPLDREARNRGTSVYFPSQVIPMLPEVLSNGLCSLNPQVDRLCMVCEMTVSSKGRLTGYKFYEAVMSSHARLTYTKVWHILQGDQDLREQYAPLVKHLEELHNLYKVLDKAREERGGISFESEEAKFIFNAERRIERIEQTQRNDAHKLIEECMILANISAARFVEKAKEPALFRIHDKPSTEAITSFRSVLAELGLELPGGNKPEPRDYAELLESVADRPDAEMLQTMLLRSMKQAIYDPENRGHFGLALQSYAHFTSPIRRYPDLTLHRAIKYLLAKEQGHQGNTTETGGYHYSMEEMLQLGQHCSMAERRADEATRDVADWLKCDFMLDQVGNVFKGVISSVTGFGFFVRLDDLFIDGLVHVSSLDNDYYRFDQVGQRLMGESSGQTYRLGDRVEVRVEAVNMDERKIDFSLISSERAPRNVGKTAREKAKKGDAGKKGGKRRQVGKKVNFEPDSAFRGEKKTKPKAAKKDARKAKKPSAKTQKIAAATKAKRAAKKKVAE	no binding
Polynucleotide phosphorylase (PNPase), bacterial two-hybrid fusion (protein, UniProt P05055 1-711) MLNPIVRKFQYGQHTVTLETGMMARQATAAVMVSMDDTAVFVTVVGQKKAKPGQDFFPLTVNYQERTYAAGRIPGSFFRREGRPSEGETLIARLIDRPIRPLFPEGFVNEVQVIATVVSVNPQVNPDIVAMIGASAALSLSGIPFNGPIGAARVGYINDQYVLNPTQDELKESKLDLVVAGTEAAVLMVESEAQLLSEDQMLGAVVFGHEQQQVVIQNINELVKEAGKPRWDWQPEPVNEALNARVAALAEARLSDAYRITDKQERYAQVDVIKSETIATLLAEDETLDENELGEILHAIEKNVVRSRVLAGEPRIDGREKDMIRGLDVRTGVLPRTHGSALFTRGETQALVTATLGTARDAQVLDELMGERTDTFLFHYNFPPYSVGETGMVGSPKRREIGHGRLAKRGVLAVMPDMDKFPYTVRVVSEITESNGSSSMASVCGASLALMDAGVPIKAAVAGIAMGLVKEGDNYVVLSDILGDEDHLGDMDFKVAGSRDGISALQMDIKIEGITKEIMQVALNQAKGARLHILGVMEQAINAPRGDISEFAPRIHTIKINPDKIKDVIGKGGSVIRALTEETGTTIEIEDDGTVKIAATDGEKAKHAIRRIEEITAEIEVGRVYTGKVTRIVDFGAFVAIGGGKEGLVHISQIADKRVEKVTDYLQMGQEVPVKVLEVDRQGRIRLSIKEATEQSQPAAAPEAPAAEQGE	no binding
ATP-dependent RNA helicase RhlB, bacterial two-hybrid fusion (protein, UniProt P0A8J8 1-421) MSKTHLTEQKFSDFALHPKVVEALEKKGFHNCTPIQALALPLTLAGRDVAGQAQTGTGKTMAFLTSTFHYLLSHPAIADRKVNQPRALIMAPTRELAVQIHADAEPLAEATGLKLGLAYGGDGYDKQLKVLESGVDILIGTTGRLIDYAKQNHINLGAIQVVVLDEADRMYDLGFIKDIRWLFRRMPPANQRLNMLFSATLSYRVRELAFEQMNNAEYIEVEPEQKTGHRIKEELFYPSNEEKMRLLQTLIEEEWPDRAIIFANTKHRCEEIWGHLAADGHRVGLLTGDVAQKKRLRILDEFTRGDLDILVATDVAARGLHIPAVTHVFNYDLPDDCEDYVHRIGRTGRAGASGHSISLACEEYALNLPAIETYIGHSIPVSKYNPDALMTDLPKPLRLTRPRTGNGPRRTGAPRNRRRSG	no binding
Initiation factor 3 (IF3), bacterial two-hybrid fusion (protein, UniProt P0A707 1-180) MKGGKRVQTARPNRINGEIRAQEVRLTGLEGEQLGIVSLREALEKAEEAGVDLVEISPNAEPPVCRIMDYGKFLYEKSKSSKEQKKKQKVIQVKEIKFRPGTDEGDYQVKLRSLIRFLEEGDKAKITLRFRGREMAHQQIGMEVLNRVKDDLQELAVVESFPTKIEGRQMIMVLAPKKKQ	no binding
Nucleoside triphosphate pyrophosphohydrolase MazG, bacterial two-hybrid fusion (protein, UniProt P0AEY3 1-263) MNQIDRLLTIMQRLRDPENGCPWDKEQTFATIAPYTLEETYEVLDAIAREDFDDLRGELGDLLFQVVFYAQMAQEEGRFDFNDICAAISDKLERRHPHVFADSSAENSSEVLARWEQIKTEERAQKAQHSALDDIPRSLPALMRAQKIQKRCANVGFDWTTLGPVVDKVYEEIDEVMYEARQAVVDQAKLEEEMGDLLFATVNLARHLGTKAEIALQKANEKFERRFREVERIVAARGLEMTGVDLETMEEVWQQVKRQEIDL	no binding
rRNA small-subunit methyltransferase A KsgA, bacterial two-hybrid fusion (protein, UniProt P06992 1-273) MNNRVHQGHLARKRFGQNFLNDQFVIDSIVSAINPQKGQAMVEIGPGLAALTEPVGERLDQLTVIELDRDLAARLQTHPFLGPKLTIYQQDAMTFNFGELAEKMGQPLRVFGNLPYNISTPLMFHLFSYTDAIADMHFMLQKEVVNRLVAGPNSKAYGRLSVMAQYYCNVIPVLEVPPSAFTPPPKVDSAVVRLVPHATMPHPVKDVRVLSRITTEAFNQRRKTIRNSLGNLFSVEVLTGMGIDPAMRAENISVAQYCQMANYLAENAPLQES	no binding
Ribosome-binding factor A RbfA, bacterial two-hybrid fusion (protein, UniProt P0A7G2 1-133) MAKEFGRPQRVAQEMQKEIALILQREIKDPRLGMMTTVSGVEMSRDLAYAKVYVTFLNDKDEDAVKAGIKALQEASGFIRSLLGKAMRLRIVPELTFFYDNSLVEGMRMSNLVTSVVKHDEERRVNPDDSKED	no binding
Ribosome maturation factor RimM, bacterial two-hybrid fusion (protein, UniProt P0A7X6 1-182) MSKQLTAQAPVDPIVLGKMGSSYGIRGWLRVFSSTEDAESIFDYQPWFIQKAGQWQQVQLESWKHHNQDMIIKLKGVDDRDAANLLTNCEIVVDSSQLPQLEEGDYYWKDLMGCQVVTTEGYDLGKVVDMMETGSNDVLVIKANLKDAFGIKERLVPFLDGQVIKKVDLTTRSIEVDWDPGF	no binding
